Source: the supplement of paper PMC8728848
Some of the results follow.

Tests used:
Assay in all cases: glycan array binding signal (z-score within array); higher = stronger binding
Conditions in all cases: glycan notation: IUPAC condensed, linker removed; mutation: R186S
Fuc(a1-2)Gal = target: Fuc(a1-2)Gal
In short: (§1)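 From the Consortium for Functional Glycomics database, 3228 arrays were curated, keeping only those whose protein sequence was available. Binding is given as a within-array Z-score averaged across arrays sharing a protein sequence and across linkers. Negative Z-scores can be read as non-binding.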

Fuc(a1-2)Gal(b1-3)GalNAc = target: Fuc(a1-2)Gal(b1-3)GalNAc
In short: as §1

[1] = target: Fuc(a1-2)Gal(b1-3)GalNAc(a1-3)[Fuc(a1-2)]Gal(b1-4)Glc
In short: as §1

[2] = target: Fuc(a1-2)Gal(b1-3)GalNAc(a1-3)[Fuc(a1-2)]Gal(b1-4)GlcNAc
In short: as §1

[3] = target: Fuc(a1-2)Gal(b1-3)GalNAc(b1-3)Gal
In short: as §1

[4] = target: Fuc(a1-2)Gal(b1-3)GalNAc(b1-3)Gal(a1-4)Gal(b1-4)Glc
In short: as §1

[5] = target: Fuc(a1-2)Gal(b1-3)GalNAc(b1-4)[Neu5Ac(a2-3)]Gal(b1-4)Glc
In short: as §1

Fuc(a1-2)Gal(b1-3)GlcNAc = target: Fuc(a1-2)Gal(b1-3)GlcNAc
In short: as §1

[6] = target: Fuc(a1-2)Gal(b1-3)GlcNAc(b1-2)Man(a1-3)[Fuc(a1-2)Gal(b1-3)GlcNAc(b1-2)Man(a1-6)]Man(b1-4)GlcNAc(b1-4)GlcNAc
In short: as §1

[7] = target: Fuc(a1-2)Gal(b1-3)GlcNAc(b1-3)Gal(b1-4)Glc
In short: as §1

[8] = target: Fuc(a1-2)Gal(b1-3)GlcNAc(b1-3)[Fuc(a1-3)[Gal(b1-4)]GlcNAc(b1-6)]Gal(b1-4)Glc
In short: as §1

[9] = target: Fuc(a1-2)Gal(b1-3)[Fuc(a1-4)]GlcNAc
In short: as §1

[10] = target: Fuc(a1-2)Gal(b1-3)[Fuc(a1-4)]GlcNAc(b1-2)Man(a1-3)[Fuc(a1-2)Gal(b1-3)[Fuc(a1-4)]GlcNAc(b1-2)Man(a1-6)]Man(b1-4)GlcNAc(b1-4)GlcNAc
In short: as §1

[11] = target: Fuc(a1-2)Gal(b1-3)[Fuc(a1-4)]GlcNAc(b1-3)[Fuc(a1-3)[Gal(b1-4)]GlcNAc(b1-6)]Gal(b1-4)Glc
In short: as §1

[12] = target: Fuc(a1-2)Gal(b1-3)[Fuc(a1-4)]GlcNAc(b1-3)[Gal(b1-4)GlcNAc(b1-6)]Gal(b1-4)Glc
In short: as §1

Fuc(a1-2)Gal(b1-4)Glc = target: Fuc(a1-2)Gal(b1-4)Glc
In short: as §1

Fuc(a1-2)Gal(b1-4)Glc6S = target: Fuc(a1-2)Gal(b1-4)Glc6S
In short: as §1

Fuc(a1-2)Gal(b1-4)GlcNAc = target: Fuc(a1-2)Gal(b1-4)GlcNAc
In short: as §1

[13] = target: Fuc(a1-2)Gal(b1-4)GlcNAc(b1-2)Man(a1-3)[Fuc(a1-2)Gal(b1-4)GlcNAc(b1-2)Man(a1-6)]Man(b1-4)GlcNAc(b1-4)GlcNAc
In short: as §1

[14] = target: Fuc(a1-2)Gal(b1-4)GlcNAc(b1-3)Gal(b1-4)GlcNAc
In short: as §1

[15] = target: Fuc(a1-2)Gal(b1-4)GlcNAc(b1-3)Gal(b1-4)GlcNAc(b1-3)Gal(b1-4)GlcNAc
In short: as §1

[16] = target: Fuc(a1-2)Gal(b1-4)GlcNAc(b1-3)GalNAc
In short: as §1

[17] = target: Fuc(a1-2)Gal(b1-4)GlcNAc6S
In short: as §1

[18] = target: Fuc(a1-2)Gal(b1-4)[Fuc(a1-3)]GlcNAc
In short: as §1

[19] = target: Fuc(a1-2)Gal(b1-4)[Fuc(a1-3)]GlcNAc(b1-2)Man(a1-3)[Fuc(a1-2)Gal(b1-4)[Fuc(a1-3)]GlcNAc(b1-2)Man(a1-6)]Man(b1-4)GlcNAc(b1-4)GlcNAc
In short: as §1

[20] = target: Fuc(a1-2)Gal(b1-4)[Fuc(a1-3)]GlcNAc(b1-3)Gal(b1-4)[Fuc(a1-3)]GlcNAc
In short: as §1

[21] = target: Fuc(a1-2)Gal(b1-4)[Fuc(a1-3)]GlcNAc(b1-3)Gal(b1-4)[Fuc(a1-3)]GlcNAc(b1-3)Gal(b1-4)[Fuc(a1-3)]GlcNAc
In short: as §1

Fuc(a1-2)Gal6S(b1-4)Glc = target: Fuc(a1-2)Gal6S(b1-4)Glc
In short: as §1

[22] = target: Fuc(a1-2)Gal6S(b1-4)Glc6S
In short: as §1

[23] = target: Fuc(a1-2)Gal6S(b1-4)GlcNAc
In short: as §1

Fuc(a1-2)[Gal(a1-3)]Gal = target: Fuc(a1-2)[Gal(a1-3)]Gal
In short: as §1

[24] = target: Fuc(a1-2)[Gal(a1-3)]Gal(b1-3)GlcNAc
In short: as §1

[25] = target: Fuc(a1-2)[Gal(a1-3)]Gal(b1-3)GlcNAc(b1-2)Man(a1-3)[Fuc(a1-2)[Gal(a1-3)]Gal(b1-3)GlcNAc(b1-2)Man(a1-6)]Man(b1-4)GlcNAc(b1-4)GlcNAc
In short: as §1

[26] = target: Fuc(a1-2)[Gal(a1-3)]Gal(b1-4)Glc
In short: as §1

[27] = target: Fuc(a1-2)[Gal(a1-3)]Gal(b1-4)GlcNAc
In short: as §1

[28] = target: Fuc(a1-2)[Gal(a1-3)]Gal(b1-4)GlcNAc(b1-2)Man(a1-3)[Fuc(a1-2)[Gal(a1-3)]Gal(b1-4)GlcNAc(b1-2)Man(a1-6)]Man(b1-4)GlcNAc(b1-4)GlcNAc
In short: as §1

[29] = target: Fuc(a1-2)[Gal(a1-3)]Gal(b1-4)[Fuc(a1-3)]GlcNAc
In short: as §1

[30] = target: Fuc(a1-2)[Gal(a1-4)]Gal(b1-4)GlcNAc
In short: as §1

[31] = target: Fuc(a1-2)[GalNAc(a1-3)]Gal
In short: as §1

[32] = target: Fuc(a1-2)[GalNAc(a1-3)]Gal(b1-3)GalNAc(a1-3)[Fuc(a1-2)]Gal(b1-4)GlcNAc
In short: as §1

[33] = target: Fuc(a1-2)[GalNAc(a1-3)]Gal(b1-3)GlcNAc
In short: as §1

[34] = target: Fuc(a1-2)[GalNAc(a1-3)]Gal(b1-3)GlcNAc(b1-2)Man(a1-3)[Fuc(a1-2)[GalNAc(a1-3)]Gal(b1-3)GlcNAc(b1-2)Man(a1-6)]Man(b1-4)GlcNAc(b1-4)GlcNAc
In short: as §1

[35] = target: Fuc(a1-2)[GalNAc(a1-3)]Gal(b1-4)Glc
In short: as §1

[36] = target: Fuc(a1-2)[GalNAc(a1-3)]Gal(b1-4)GlcNAc
In short: as §1

[37] = target: Fuc(a1-2)[GalNAc(a1-3)]Gal(b1-4)GlcNAc(b1-2)Man(a1-3)[Fuc(a1-2)[GalNAc(a1-3)]Gal(b1-4)GlcNAc(b1-2)Man(a1-6)]Man(b1-4)GlcNAc(b1-4)GlcNAc
In short: as §1

[38] = target: Fuc(a1-2)[GalNAc(a1-3)]Gal(b1-4)GlcNAc(b1-3)Gal(b1-4)GlcNAc
In short: as §1

[39] = target: Fuc(a1-2)[GalNAc(a1-3)]Gal(b1-4)GlcNAc(b1-3)Gal(b1-4)GlcNAc(b1-3)Gal(b1-4)GlcNAc
In short: as §1

[40] = target: Fuc(a1-2)[GalNAc(a1-3)]Gal(b1-4)[Fuc(a1-3)]GlcNAc
In short: as §1

[41] = target: Fuc(a1-2)[GalNAc(a1-4)]Gal(b1-4)GlcNAc
In short: as §1

[42] = target: Fuc(a1-2)[GalNAc(b1-3)]Gal
In short: as §1

Fuc(a1-3)GlcNAc = target: Fuc(a1-3)GlcNAc
In short: as §1

[43] = target: Fuc(a1-3)[Gal(b1-4)]Glc6S
In short: as §1

[44] = target: Fuc(a1-3)[Gal(b1-4)]GlcNAc
In short: as §1

[45] = target: Fuc(a1-3)[Gal(b1-4)]GlcNAc(b1-2)Man(a1-3)[Fuc(a1-3)[Gal(b1-4)]GlcNAc(b1-2)Man(a1-6)]Man(b1-4)GlcNAc(b1-4)GlcNAc
In short: as §1

[46] = target: Fuc(a1-3)[Gal(b1-4)]GlcNAc(b1-3)Gal(b1-3)[Fuc(a1-4)]GlcNAc
In short: as §1

[47] = target: Fuc(a1-3)[Gal(b1-4)]GlcNAc(b1-3)GalNAc
In short: as §1

[48] = target: Fuc(a1-3)[Gal(b1-4)]GlcNAc(b1-4)Gal(b1-4)[Fuc(a1-3)]GlcNAc
In short: as §1

[49] = target: Fuc(a1-3)[Gal(b1-4)]GlcNAc(b1-4)Gal(b1-4)[Fuc(a1-3)]GlcNAc(b1-4)Gal(b1-4)[Fuc(a1-3)]GlcNAc
In short: as §1

[50] = target: Fuc(a1-3)[Gal(b1-4)]GlcNAc(b1-6)[Gal(b1-3)GlcNAc(b1-3)]Gal(b1-4)Glc
In short: as §1

[51] = target: Fuc(a1-3)[Gal(b1-4)]GlcNAc6S
In short: as §1

B1: Gal 3 (Homo sapiens), P17931 (protein)
chain: MADNFSLHDALSGSGNPNPQGWPGAWGNQPAGAGGYPGASYPGAYPGQAPPGAYPGQAPPGAYHGAPGAYPGAPAPGVYPGPPSGPGAYPSSGQPSAPGAYPATGPYGAPAGPLIVPYNLPLPGGVVPRMLITILGTVKPNANILDFQRGNDVAFHFNPRFNENNRRVIVCNTKLDNNWGREESQSVFPFESGKPFKIQVLVEPDHFKVAVNDAHLLQYNHRVKKLNEISKLGISGDIDLTSASYTMI
Fuc(a1-2)Gal
  glycan array binding signal (z-score): -0.048
Fuc(a1-2)Gal(b1-3)GalNAc
  glycan array binding signal (z-score): -0.05
[1]
  glycan array binding signal (z-score): -0.044
[2]
  glycan array binding signal (z-score): -0.036
[3]
  glycan array binding signal (z-score): -0.045
[4]
  glycan array binding signal (z-score): -0.052
[5]
  glycan array binding signal (z-score): -0.057
Fuc(a1-2)Gal(b1-3)GlcNAc
  glycan array binding signal (z-score): -0.06
[6]
  glycan array binding signal (z-score): -0.047
[7]
  glycan array binding signal (z-score): -0.052
[8]
  glycan array binding signal (z-score): -0.073
[9]
  glycan array binding signal (z-score): -0.026
[10]
  glycan array binding signal (z-score): -0.074
[11]
  glycan array binding signal (z-score): -0.061
[12]
  glycan array binding signal (z-score): -0.092
Fuc(a1-2)Gal(b1-4)Glc
  glycan array binding signal (z-score): -0.07
Fuc(a1-2)Gal(b1-4)Glc6S
  glycan array binding signal (z-score): -0.047
Fuc(a1-2)Gal(b1-4)GlcNAc
  glycan array binding signal (z-score): -0.054
[13]
  glycan array binding signal (z-score): -0.017
[14]
  glycan array binding signal (z-score): -0.065
[15]
  glycan array binding signal (z-score): 0.012
[16]
  glycan array binding signal (z-score): -0.04
[17]
  glycan array binding signal (z-score): -0.046
[18]
  glycan array binding signal (z-score): -0.052
[19]
  glycan array binding signal (z-score): 0.064
[20]
  glycan array binding signal (z-score): -0.047
[21]
  glycan array binding signal (z-score): -0.032
Fuc(a1-2)Gal6S(b1-4)Glc
  glycan array binding signal (z-score): -0.049
[22]
  glycan array binding signal (z-score): -0.101
[23]
  glycan array binding signal (z-score): -0.055
Fuc(a1-2)[Gal(a1-3)]Gal
  glycan array binding signal (z-score): -0.062
[24]
  glycan array binding signal (z-score): -0.059
[25]
  glycan array binding signal (z-score): 19.8
[26]
  glycan array binding signal (z-score): -0.083
[27]
  glycan array binding signal (z-score): -0.051
[28]
  glycan array binding signal (z-score): 0.619
[29]
  glycan array binding signal (z-score): 0.013
[30]
  glycan array binding signal (z-score): -0.03
[31]
  glycan array binding signal (z-score): -0.006
[32]
  glycan array binding signal (z-score): -0.04
[33]
  glycan array binding signal (z-score): -0.009
[34]
  glycan array binding signal (z-score): 0.242
[35]
  glycan array binding signal (z-score): -0.056
[36]
  glycan array binding signal (z-score): -0.022
[37]
  glycan array binding signal (z-score): -0.024
[38]
  glycan array binding signal (z-score): 0.011
[39]
  glycan array binding signal (z-score): -0.015
[40]
  glycan array binding signal (z-score): -0.021
[41]
  glycan array binding signal (z-score): -0.073
[42]
  glycan array binding signal (z-score): -0.066
Fuc(a1-3)GlcNAc
  glycan array binding signal (z-score): -0.067
[43]
  glycan array binding signal (z-score): -0.096
[44]
  glycan array binding signal (z-score): -0.036
[45]
  glycan array binding signal (z-score): 0.045
[46]
  glycan array binding signal (z-score): -0.056
[47]
  glycan array binding signal (z-score): -0.049
[48]
  glycan array binding signal (z-score): -0.026
[49]
  glycan array binding signal (z-score): -0.082
[50]
  glycan array binding signal (z-score): -0.047
[51]
  glycan array binding signal (z-score): -0.024
